# Source: publication PMC4336329 (PLoS ONE, 2015)
# In all, about 310,000 compounds went through this assay and about 2,200 (0.71%) showed an effect of 50% or more. The effect is printed as a negative number. The list shows a part of the results.
# Target: human ether-à-go-go-related gene (hERG) potassium channel (human, UniProt Q12809)
# Assay: primary screen, population patch clamp on CHO cells stably expressing hERG
# Chain of human ether-à-go-go-related gene (hERG) potassium channel (Q12809 whole entry, looked up): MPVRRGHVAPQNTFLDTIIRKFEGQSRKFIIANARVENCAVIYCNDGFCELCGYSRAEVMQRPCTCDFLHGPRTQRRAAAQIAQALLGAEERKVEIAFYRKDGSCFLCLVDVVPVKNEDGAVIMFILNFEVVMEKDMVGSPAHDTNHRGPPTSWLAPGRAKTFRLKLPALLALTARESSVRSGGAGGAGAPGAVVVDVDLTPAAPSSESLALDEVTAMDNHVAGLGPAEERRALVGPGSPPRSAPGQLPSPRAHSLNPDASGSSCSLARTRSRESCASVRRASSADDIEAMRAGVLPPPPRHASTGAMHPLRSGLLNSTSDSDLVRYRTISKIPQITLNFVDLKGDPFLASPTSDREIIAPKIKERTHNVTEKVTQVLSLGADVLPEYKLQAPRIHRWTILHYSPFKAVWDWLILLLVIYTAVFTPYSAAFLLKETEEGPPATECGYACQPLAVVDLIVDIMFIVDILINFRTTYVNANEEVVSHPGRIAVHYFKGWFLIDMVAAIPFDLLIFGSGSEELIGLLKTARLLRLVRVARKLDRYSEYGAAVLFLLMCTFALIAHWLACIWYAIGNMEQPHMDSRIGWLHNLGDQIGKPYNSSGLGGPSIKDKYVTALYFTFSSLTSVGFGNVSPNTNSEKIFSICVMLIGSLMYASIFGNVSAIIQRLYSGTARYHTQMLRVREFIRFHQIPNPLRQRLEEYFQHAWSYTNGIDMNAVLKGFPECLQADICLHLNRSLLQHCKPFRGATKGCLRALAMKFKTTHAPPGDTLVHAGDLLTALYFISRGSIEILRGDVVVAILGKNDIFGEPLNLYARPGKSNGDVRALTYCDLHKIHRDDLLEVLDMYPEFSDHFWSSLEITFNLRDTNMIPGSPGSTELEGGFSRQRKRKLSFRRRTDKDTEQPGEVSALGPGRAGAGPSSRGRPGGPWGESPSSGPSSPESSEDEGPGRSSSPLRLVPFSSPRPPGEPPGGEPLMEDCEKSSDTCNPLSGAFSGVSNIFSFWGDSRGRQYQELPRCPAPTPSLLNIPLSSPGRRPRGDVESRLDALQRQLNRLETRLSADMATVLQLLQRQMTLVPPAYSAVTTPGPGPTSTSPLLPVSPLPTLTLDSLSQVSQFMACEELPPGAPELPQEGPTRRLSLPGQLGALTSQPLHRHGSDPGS
row,SMILES,"hERG current change (%, negative = inhibition) at 1uM [%]"
1,COCCn1c(=NC(=O)c2ccc3c(c2)OCCO3)sc2cc(S(N)(=O)=O)ccc21,2.81
2,COc1ccc(-c2c(C)oc3c(CN4CCN(C)CC4)c(O)ccc3c2=O)cc1,12.5
3,Cc1ccc(S(=O)(=O)N2CCN(C(=O)CSc3n[nH]c(N)n3)CC2)c(C)c1,2.14
4,COC(=O)CSC1=C(C#N)C(c2ccc(C)o2)CC(=O)N1 (centres unmarked),15.4
5,Cc1ccc(C2Nc3ccccc3C(=O)N2CCCN2CCOCC2)cc1 (centres unmarked),5.5
6,CC(=O)c1c(C)nc(-c2ccc(Cl)cc2)nc1N=CN(C)C,15.4
7,COc1ccc(Cl)cc1NC(=O)CSc1nnc(C)c(=O)n1N,14.1
8,Cc1ccccc1NC(=S)N(CCc1c(C)[nH]c2ccc(F)cc12)Cc1ccncc1,7.37
9,CCOC(=O)C(C(=O)OCC)C(Nc1ccc(Br)cc1)c1ccccc1 (centres unmarked),-1.19
10,CC(/C=N/NC(=O)c1cc(-c2ccc(Cl)cc2)nc2ccccc12)=C\c1ccco1,21.1
11,CCN1C(=O)/C(=C\c2ccc3c(c2)OCO3)C(C(=O)OC)=C1C,13.1
12,COc1cccc(N/C=C/C(=O)c2ccc(C)cc2)c1,11.6
13,Cc1ccc(Cl)cc1N(CC(=O)N1CCCCCC1)S(C)(=O)=O,7.25
14,Cc1noc(C)c1COc1ccc(C(=O)NCC2CCCO2)cc1 (centres unmarked),11.4
15,Cc1nccn1-c1c([N+](=O)[O-])c(=O)n(C)c2ccccc12,11.9
16,CCC(C)C(NC(C)=O)C(=O)NC(=O)NC(c1ccccc1)c1ccccc1 (centres unmarked),5.03
17,CN1C2CCC1CC(NS(=O)(=O)c1cc(Cl)c(Cl)cc1Cl)C2 (centres unmarked),13.3
18,O=C(NC1CCSc2ccccc21)c1c(F)cccc1Cl (centres unmarked),12.6
19,COc1ccc(NC(=O)C2Cc3cccc(OC)c3O/C2=N\O)cc1 (centres unmarked),16.5
20,Fc1ccccc1N1CCN(Cc2cccnc2)CC1,5.09
21,COc1ccc(NC(=S)NN2C(C)CCCC2C)cc1 (centres unmarked),9.86
22,COc1cccc(/C=N/NC(=O)c2c(C)nc3ccc(Br)cn23)c1,-3.36
23,Cc1ccc(-c2noc(CCC(=O)NCCCN3CCN(c4ccc(F)cc4)CC3)n2)cc1,-20.6

row,SMILES,"hERG current change (%, negative = inhibition) at 1uM [%]"
1,CC1CCCN(CCCOc2ccc(Cl)cc2Br)C1.O=C(O)C(=O)O (centres unmarked),-30.3
2,Cc1cc(C(=O)NN=C2CCCCCCC2)c2ccccc2n1,5.95
3,Nc1nc(N)c(N=Nc2ccc(C(=O)O)cc2)c(N)n1,8.04
4,Cc1c(C(=O)NNC(=O)c2ccccc2O)oc2ccc(Br)cc12,7.49
5,Cc1nc2ccc(S(=O)(=O)NCC(=O)NCc3ccc(Cl)cc3)cc2s1,16.2
6,Cc1cc(OCc2nn[nH]n2)c2c(C)c(CC(=O)O)c(=O)oc2c1,14.3
7,CCCCNC(=S)NNC(=O)c1ccoc1C,-1.68
8,Cc1cc(C)c2c(CC(=O)NNC(=O)c3ccccc3)coc2c1,16.3
9,CS(=O)(=O)N(CC(=O)N1CCCC1)c1cc(Cl)ccc1Cl,17.3
10,CCC1CCc2c(sc(NC(=O)c3cccnc3)c2C(N)=O)C1 (centres unmarked),13.7
11,C/C(=N\Nc1nc(N2CCCCC2)nc(N2CCOCC2)n1)c1cccs1,15.7
12,Cc1ccc(S(=O)(=O)N2CCC(C(=O)OCc3c(C)noc3C)CC2)cc1C,-3.32
13,CC(C)(C)NC(=O)CN(C(=O)c1csnn1)c1cccc2c1CCCC2,5.8
14,O=C(Nc1ccc2c(c1)OCO2)C(c1ccccc1)N1CCC2(CC1)OCCO2 (centres unmarked),6.28
15,CC(=O)N1CCc2cc(C(=O)CN3CCCN(Cc4ccc(F)cc4)C3)ccc21,9.22
16,CCN1C(=O)[C@H]2[C@@H](c3ccc(SC4CCCCC4)c(OC)c3)N3CCCC[C@@]3(C(=O)OC)[C@H]2C1=O.O=C(O)C(F)(F)F,12.9
17,CCCC(=O)Nc1nnc(SCC(=O)Nc2ccc3c(c2)OCO3)s1,6.3
18,C/C(=N\NC(=S)Nc1cc(S(=O)(=O)N2CCOCC2)ccc1Cl)c1ccc(N2CCOCC2)cc1,10.9
19,CCCCCCCCC(=O)NNC(=O)c1c(O)c2ccccc2n(CCC)c1=O,13.3
20,CCc1ccc(/C=C2/SC(=S)N(CC(=O)Nc3nc4ccccc4s3)C2=O)cc1,10.7
21,Cc1nc(C)c(C(=O)N(c2ccc(C)c(C)c2)C(C(=O)NCc2ccco2)c2ccccc2)s1 (centres unmarked),-0.491
22,COCCNC(=O)c1ccccc1NC(=O)C1COc2ccccc2O1 (centres unmarked),8.05
23,Cc1cc(C)c2c(CCl)cc(=O)oc2c1,9.68

row,SMILES,"hERG current change (%, negative = inhibition) at 1uM [%]"
1,COc1ccc(C(=O)c2ccc(CC#N)s2)cc1,10.2
2,CCOc1ccc2[nH]c(=O)c(CN(CCCO)C(C)=O)cc2c1,-0.692
3,CCOC(=O)Cn1cncc1-c1ccc([N+](=O)[O-])cc1,15.6
4,CCc1ccc(NC(=O)CS(=O)CC(=O)Nc2ccc(-n3cnnn3)c(C)c2)cc1 (centres unmarked),10.3
5,c1ccc(-c2nnc(CN3CCN(c4ccccc4)CC3)o2)cc1,8.15
6,COc1cccc(-c2cc3c(-n4cccc4)ncnc3o2)c1,4.88
7,CNc1nc2[nH]c(=O)c3c(c2s1)OC(N)=C(C#N)C3c1cccc(F)c1 (centres unmarked),14.2
8,C/C(=N/NC(=O)c1cc(Cl)ccc1O)C12CC3CC(CC(C3)C1)C2,8.59
9,COc1ccc(C2(O)CCN(CC(=O)Nc3nccs3)CC2)c(OC)c1,-12.7
10,CCOC(=O)C(C)Oc1ccc2c(CC)cc(=O)oc2c1C (centres unmarked),0.789
11,Cc1ccc(NC(=O)C(=O)NCCCN2CCOCC2)c(C)c1,4.82
12,O=C(CSc1nc2ccc(Cl)cc2[nH]1)NCCc1ccc(Cl)cc1,11.7
13,COC(=O)c1ccccc1S(=O)(=O)N1CCC(c2nc3ccccc3o2)CC1,-6.04
14,CCN(CC)C(=O)CCc1nnc(CCc2c[nH]c3ccccc23)o1,6.15
15,Cc1cc(C)cc(N(C(=O)CNC(=O)c2ccco2)C(C(=O)NC2CCCC2)c2cccnc2)c1 (centres unmarked),-0.0692
16,Cc1ccnn1C(C)C(=O)O (centres unmarked),13.4
17,O=C(CN1CCN(c2ccc(O)cc2)CC1)Nc1ccc(SC(F)F)cc1,-78.4
18,CCc1cc(=O)oc2cc(OCC(=O)NCCCN3CCOCC3)c(Cl)cc12,24.8
19,O=C(NCCc1cccnc1)c1cc(COc2ccc(F)cc2Cl)on1,-2.95
20,COc1cc2c(C(=O)NC3CCCCCC3)cn(C)c(=O)c2cc1OC,13.5
21,CSCCC(/C(O)=C(\C#N)c1nc2ccccc2[nH]1)N1C(=O)c2ccccc2C1=O (centres unmarked),5.68
22,Nc1nc(-c2ccc3c(c2)CCO3)cs1,9.89
23,COc1ccc(S(=O)(=O)N(C)c2ccc(C(=O)NCc3ccco3)cc2)cc1,11.8

row,SMILES,"hERG current change (%, negative = inhibition) at 1uM [%]"
1,CCOC(=O)Cc1ncccc1C(=O)Nc1ccc(Oc2ccccc2)cc1,8.83
2,Cc1ccc(C(=O)Oc2csc(=S)n2C(=O)c2ccc(C)cc2)cc1,19.8
3,O=C1CS/C(=N\N=C\c2ccco2)N1c1ccccc1,11.5
4,CCc1nc2c(nnn2Cc2ccc(F)cc2)c(=O)[nH]1,1.79
5,CCOc1ccc(-c2cnc3ccccc3n2)cc1,13.4
6,CCCCCCCCCc1nc(N)n[nH]1,8.8
7,Cc1onc(-c2ccccc2Cl)c1C(=O)OCC(=O)N1CCN(c2ccccc2)CC1,0.527
8,CN(C)S(=O)(=O)c1ccc(N/C=C(\[N+](=O)[O-])S(=O)(=O)c2ccccc2)cc1,21.3
9,Cn1c(C(=O)N2CCCC(C(=O)N3CCN(C(=O)c4ccco4)CC3)C2)cc2sccc21 (centres unmarked),0.524
10,COc1ccc(Cc2nnc(NCCO)[nH]c2=O)cc1OC,13
11,COc1cc(-c2nnc3sc(Cc4ccccc4)nn23)cc(OC)c1OC,11.6
12,COC(=O)c1ccc(CSc2nnc(CNC(=O)c3cccs3)o2)o1,8.05
13,COCCCn1c(=O)/c(=C\c2ccccc2OC(F)F)s/c1=C(/C#N)C(=O)N1CCOCC1,9.19
14,COc1cc2c(cc1NC(=O)c1cccc(F)c1)CCCC2,9.35
15,CCC1CCCCN1CCCNC(=O)Cn1c2ccccc2c2nc(=O)cc(C)n21 (centres unmarked),-2.4
16,COc1ccccc1C1CCN(Cc2ccccc2)CC1,8.45
17,CC(=O)c1cccc(OCC(O)CN2CC=C(c3ccccc3)CC2)c1.O=C(O)C(=O)O (centres unmarked),-50
18,CCOC(=O)C1CCN(C(=O)COC(=O)CNC(=O)c2sc3ccccc3c2Cl)CC1,-3.75
19,COC(=O)c1c(NC(=O)COC(=O)CCc2ccc(S(=O)(=O)N3CCOCC3)cc2)sc2c1CCC2,7.26
20,C/C(CC(=O)Nc1cccc(C(F)(F)F)c1)=N\NC(=O)c1ccncc1,15
